Source: PMC12491506
No constants are given. Whether binding was seen depends on the method and setting. In cells and extracts the contact can be indirect. Some results given as binding are weak or reduced against the parent protein; the word gives no strength. Tags and fused reporters may be left off the sequences shown. Each block holds one binder with its values, some of them ahead of it.

How the values were obtained:
[1] = biological target: T1, GFP-RAB32 (UniProt Q13637); assay: co-IP; GFP-trap from lysates of HEK293T cells with mCherry-LRMDA and VPS35L-GFP or GFP-RAB32 (wild type or mutants), blots for mCherry-LRMDA and Retriever (Figs 2E, 3C, 3D)
T1 sequence: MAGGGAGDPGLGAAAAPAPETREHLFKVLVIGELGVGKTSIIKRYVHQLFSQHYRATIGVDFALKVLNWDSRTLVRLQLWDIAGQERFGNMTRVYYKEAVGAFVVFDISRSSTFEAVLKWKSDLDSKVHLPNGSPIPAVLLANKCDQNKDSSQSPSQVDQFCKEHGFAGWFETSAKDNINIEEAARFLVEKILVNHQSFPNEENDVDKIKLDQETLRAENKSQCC

[2] = biological target: T2, GFP-RAB32 T39N (UniProt Q13637); assay: as above
T2 sequence: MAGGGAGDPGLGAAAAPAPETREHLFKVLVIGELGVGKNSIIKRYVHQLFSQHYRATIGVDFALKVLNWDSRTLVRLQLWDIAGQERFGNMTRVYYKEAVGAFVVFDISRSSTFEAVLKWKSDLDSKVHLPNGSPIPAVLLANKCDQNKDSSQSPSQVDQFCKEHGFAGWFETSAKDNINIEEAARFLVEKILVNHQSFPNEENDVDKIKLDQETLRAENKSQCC

[3] = biological target: T3, GFP-RAB32 Q85L (UniProt Q13637); assay: as above
T3 sequence: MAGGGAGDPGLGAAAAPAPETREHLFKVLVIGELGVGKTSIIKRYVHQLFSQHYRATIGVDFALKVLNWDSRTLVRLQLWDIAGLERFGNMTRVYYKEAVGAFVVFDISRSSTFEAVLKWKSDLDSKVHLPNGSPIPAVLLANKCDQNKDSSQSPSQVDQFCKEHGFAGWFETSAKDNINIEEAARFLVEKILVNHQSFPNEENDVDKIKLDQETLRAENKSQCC

[4] = biological target: T4, GFP-LRMDA (human), A0A087; assay: co-IP; GFP-LRMDA pull-down performed in MNT1 cells (Supplementary Fig. 1H); settings: remark: other sources report otherwise
T4 chain: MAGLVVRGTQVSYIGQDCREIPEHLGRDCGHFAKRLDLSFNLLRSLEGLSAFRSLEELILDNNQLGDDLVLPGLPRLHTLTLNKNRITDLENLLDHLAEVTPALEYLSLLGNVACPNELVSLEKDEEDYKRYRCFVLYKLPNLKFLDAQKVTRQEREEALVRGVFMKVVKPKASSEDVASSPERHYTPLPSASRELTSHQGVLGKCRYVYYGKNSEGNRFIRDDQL

[5] = biological target: T5, GFP-LRMDA F145D (human); assay: as above
T5 sequence: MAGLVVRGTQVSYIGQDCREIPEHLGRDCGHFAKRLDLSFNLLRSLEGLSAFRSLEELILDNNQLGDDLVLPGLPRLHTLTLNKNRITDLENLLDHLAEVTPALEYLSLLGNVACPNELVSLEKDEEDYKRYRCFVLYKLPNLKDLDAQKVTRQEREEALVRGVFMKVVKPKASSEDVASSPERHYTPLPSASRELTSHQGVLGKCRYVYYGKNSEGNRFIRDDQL

- binding [1]: binds
- binding [2]: no binding
- binding [3]: binds
B1: mCherry-LRMDA (protein, UniProt A0A087WWI0 1-226)
chain: MAGLVVRGTQVSYIGQDCREIPEHLGRDCGHFAKRLDLSFNLLRSLEGLSAFRSLEELILDNNQLGDDLVLPGLPRLHTLTLNKNRITDLENLLDHLAEVTPALEYLSLLGNVACPNELVSLEKDEEDYKRYRCFVLYKLPNLKFLDAQKVTRQEREEALVRGVFMKVVKPKASSEDVASSPERHYTPLPSASRELTSHQGVLGKCRYVYYGKNSEGNRFIRDDQL

- binding [4]: binds
B2: RAB38 (endogenous, MNT1 cells), P57729 1-211 (protein)
chain: MQAPHKEHLYKLLVIGDLGVGKTSIIKRYVHQNFSSHYRATIGVDFALKVLHWDPETVVRLQLWDIAGQERFGNMTRVYYREAMGAFIVFDVTRPATFEAVAKWKNDLDSKLSLPNGKPVSVVLLANKCDQGKDVLMNNGLKMDQFCKEHGFVGWFETSAKENINIDEASRCLVKHILANECDLMESIEPDVVKPHLTSTKVASCSGCAKS

- binding [5]: no binding
B3: RAB38 (endogenous, MNT1 cells) (protein, UniProt P57729 1-211)
chain: MQAPHKEHLYKLLVIGDLGVGKTSIIKRYVHQNFSSHYRATIGVDFALKVLHWDPETVVRLQLWDIAGQERFGNMTRVYYREAMGAFIVFDVTRPATFEAVAKWKNDLDSKLSLPNGKPVSVVLLANKCDQGKDVLMNNGLKMDQFCKEHGFVGWFETSAKENINIDEASRCLVKHILANECDLMESIEPDVVKPHLTSTKVASCSGCAKS
